Measurements as given in PubChem BioAssay AID1345082 (National Center for Advancing Translational Sciences (NCATS), 2018).
About 4,000 (4.3%) of roughly 94,000 compounds were called active. The shares of active, inactive and inconclusive entries below differ from those in the screen. Calls come from the whole dose curve; as a rule, active = well fitted inhibition curve with a large enough effect; inconclusive = small, poorly fitted or top-dose-only effect; inactive = no such curve, though single readings can be large or run the other way. A potency beside an inconclusive call is a rough fit, not a confirmed value.
Potency is the fitted concentration of half-maximal effect; tags give direction and shape of the fitted curve.

Experiment: Cytotoxic Profiling in NIH 3T3 Cell Line of Diverse Libraries Using Quantitative High-Throughput Screening; note: nearly all actives have a fitted effect of over 55% in size
Conditions: NIH 3T3 viability, CellTiter-Glo ATP luminescence, 48-72 h; series mostly up to 96.7 µM
Source text: Cell-based phenotypic screening is a commonly used approach to discover biological pathways, novel drug targets, chemical probes and high-quality hit-to-lead molecules. Many hits identified from high-throughput screening campaign are ruled out through a series of follow-up potency, selectivity/specificity, and cytotoxicity assays. Prioritization of molecules with little or no cytotoxicity for a more in-depth downstream evaluation influence the future direction of projects, so cytotoxicity profiling of the screening libraries at early stage is essential for increasing the likelihood of candidate success. In this study, we analyzed results from a cell-based cytotoxicity screening campaign, comprising nearly 10,000 compounds in NCATS annotated libraries, and over 100,000 compounds in a diversity library, evaluated in four normal cell lines (HEK 293, NIH 3T3, CRL-7250 and HaCat) and a cancer cell line (KB 3-1, a HeLa subline) with overall screening outcomes, hit rates, pan-activity and selectivity. For the annotated library, we also examined the primary targets and mechanistic pathways regularly associated with cell death. To our knowledge, this is the first study to use high-throughput screening to profile large libraries for cytotoxicity assessment in both normal and cancer cell lines. In summary, the results generated here constitutes a valuable resource for the scientific community and provides insight on identifying cytotoxic compounds with particular mechanisms of action, and prioritizing compounds with suitable cytotoxicity profile for further evaluation.
NIH 3T3 cells were seeded into white 1536-well plates using a Multidrop Combi peristaltic dispenser (ThermoFisher, Waltham, MA) at a density of 400 cells/well in 5 uL of medium respectively. A pintool (Kalypsys) was used to transfer 23 nL of compound solution to the 1536-well assay plates. After 48 or 72 hr incubation at 37 degree Celsius, 5% CO2 and 95% humidity, 2.5 uL of CellTiter-Glo (Promega) was dispensed into each well using a dispenser (Aspect Automation, St. Paul, MN) with solenoid valves (Lee Valves, Westbrook CT). Plates were left at room temperature for 10 min before imaging the ATP-coupled luminescence using a ViewLux microplate imager (PerkinElmer, Waltham, MA).
With `O=C(NCc1ccc(F)cc1)c1cc(-c2ccc[nH]2)n[nH]1` the Potency was “inactive”.
With `COCCN1C(=O)c2ccccc2C(C(=O)Nc2nc(C)cs2)C12CCCCC2` (configuration not stated) the Potency was “inactive”.
With `Nc1cccc(-c2ccc(N3CCCCC3)nn2)c1` the Potency was active: 35.5 µM.
In the case of `Cc1nnc(-c2cc(-c3ccncc3)ccn2)n1CCN1CCOCC1`, the Potency is reported as inconclusive: 100 µM [inhibitor, single point].
For `COCCNC(=O)CC[C@]12CC[C@](C)(O)C[C@H]1C(C)(C)C[C@@H]2NC(=O)c1ccc(C(F)(F)F)cc1`, the Potency was inconclusive: 50.1 µM [inhibitor, partial curve, poor fit].
With `O=C1COc2ccc(-c3cc4ccccc4o3)nc2CN1CCOc1ccccc1` the Potency was inconclusive: 56.2 µM [inhibitor, partial curve, poor fit].
In the case of `Cc1ccc(-c2c(C(=O)NCc3ccc(Cl)cc3)nc3sccn23)cc1`, the Potency is reported as inconclusive: 31.6 µM [inhibitor, full curve].
With `O=C1Nc2ccccc2CC12CCCN2Cc1ccccc1` (configuration not stated) the Potency was inconclusive: 89.1 µM [inhibitor, partial curve, poor fit].
For `O=C(Nc1ccc(Cl)cc1Cl)c1cn2c(n1)CN(C(=O)OCc1ccccc1)CC2`, the Potency was inconclusive: 50.1 µM [inhibitor, partial curve, poor fit].
With `C#CCNC(=O)c1nc(-c2ccccc2OC)c2cnccn12` the Potency was inconclusive: 39.8 µM [inhibitor, full curve].
For `O=C1CC(c2ccccc2)N(Cc2ccncc2)CCCN(S(=O)(=O)c2cccs2)CCN1` (configuration not stated), the Potency was inconclusive: 35.5 µM [inhibitor, partial curve].
With `O=C(NC1CCCN(c2cc(-c3ccccc3)[nH]n2)C1)c1ccc(F)cc1Cl` (configuration not stated) the Potency was inconclusive: 50.1 µM [inhibitor, single point].
With `CCc1nc2c(c(-c3ccc(O)cc3)n1)CN(Cc1ccc(N(C)C)cc1)CC2` the Potency was “inactive”.
In the case of `CCOC(=O)[C@@H]1[C@@H](OC)C(=O)N(C)C12CCN(C(=O)C1CCC1)CC2`, the Potency is reported as inconclusive: 79.4 µM [inhibitor, partial curve, poor fit].
In the case of `Cc1nc2c(c(-c3ccc(Cl)cc3)n1)CCN(C(=O)c1ccccc1)CC2`, the Potency is reported as inconclusive: 50.1 µM [inhibitor, partial curve, poor fit].
For `O=C(c1csc(Cc2ccccc2)n1)N1Cc2ccccc2C(O)C1` (configuration not stated), the Potency was inconclusive: 39.8 µM [inhibitor, partial curve].
With `COCC(=O)Nc1ccc(-c2ccc(OC)nn2)cc1` the Potency was inconclusive: 56.2 µM [inhibitor, partial curve, poor fit].
